Measured values reported in paper PMC11706625, “Structural and bioinformatics analyses identify deoxydinucleotide-specific nucleases and their association with genomic islands in gram-positive bacteria” (Nucleic Acids Research, 2025).

Columns and labels:
NrnCBh [1] = target: T1, NrnCBh (Bartonella henselae, UniProt X5MEI1); test: X-ray crystal structure; format: binding; details: protein:substrate 1:2; active site
T1 construct: gene BM1374165_00260; full length, His6-SUMO tag cleaved by Ulp1, E. coli; homooctamer
T1 sequence (X5MEI1 1-206): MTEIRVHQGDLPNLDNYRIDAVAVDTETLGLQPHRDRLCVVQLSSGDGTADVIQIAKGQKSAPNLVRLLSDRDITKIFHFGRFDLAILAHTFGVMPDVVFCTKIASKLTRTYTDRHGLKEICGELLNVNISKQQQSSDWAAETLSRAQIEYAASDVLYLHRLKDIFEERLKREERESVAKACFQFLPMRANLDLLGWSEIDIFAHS

OrnNoc = OrnNoc (Nocardioides alkalitolerans, UniProt Z9Y7C7QGD1); test: 2-aminopurine fluorescence unquenching, initial rates
OrnPa = target: T2, OrnPa (Pseudomonas aeruginosa, UniProt P57665); test: as above; format: biochemical; details: 20 mM Tris-HCl, 150 mM KCl, MgCl2, pH 7.9, 21 °C
T2 sequence (P57665 1-180): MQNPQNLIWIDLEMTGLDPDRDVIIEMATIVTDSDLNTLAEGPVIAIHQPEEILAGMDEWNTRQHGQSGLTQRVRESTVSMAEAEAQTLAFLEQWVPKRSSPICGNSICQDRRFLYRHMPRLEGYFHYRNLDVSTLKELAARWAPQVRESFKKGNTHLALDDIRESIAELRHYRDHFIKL

OrnVc = target: T3, OrnVc (Vibrio cholerae, UniProt A5F3M7); test: as above; format: biochemical; details: 20 mM Tris-HCl, 150 mM KCl, MgCl2, pH 7.9, 21 °C
T3 construct: gene orn

NrnCBh [2] = target: T1, NrnCBh; test: as above; format: biochemical; details: 20 mM Tris-HCl, 150 mM KCl, MgCl2, pH 7.9, 21 °C

With Nc1nc2c(ncn2[C@H]2C[C@H](OP(=O)(O)OC[C@H]3O[C@@H](n4cnc5c(=O)[nH]c(N)nc54)C[C@@H]3O)[C@@H](COP(=O)(O)O)O2)c(=O)[nH]1 [dpGG] the X-ray crystal structure (NrnCBh [1]) was “determining the structure of B. henselae NrnC (NrnCBh) bound to dpGG”.

With Nc1ncc2ncn([C@@H]3O[C@H](COP(=O)(O)O)[C@@H](OP(=O)(O)OC[C@H]4O[C@@H](n5cnc6c(=O)[nH]c(N)nc65)[C@H](O)[C@@H]4O)[C@H]3O)c2n1 [p(2AP)G] the kcat/Km (OrnNoc) was “OrnPa, OrnBla, and OrnNoc had a slight bias toward diribonucleotides”, the kcat/Km (OrnPa) was “OrnPa, OrnBla, and OrnNoc had a slight bias toward diribonucleotides” and the kcat/Km (OrnVc) was “OrnVc did not distinguish between RNA and DNA dinucleotides”.

In the case of Nc1ncc2ncn([C@H]3C[C@H](OP(=O)(O)OC[C@H]4O[C@@H](n5cnc6c(=O)[nH]c(N)nc65)C[C@@H]4O)[C@@H](COP(=O)(O)O)O3)c2n1 [p(d2AP)dG], the kcat/Km (NrnCBh [2]) is reported as “cleaved both RNA and DNA substrates with similar or equal efficiency”.
